Data taken from PubChem BioAssay AID624417 (National Center for Advancing Translational Sciences (NCATS), 2012).
The whole screen tested about 410,000 compounds, of which about 6,400 (1.6%) were called active. The shares of active, inactive and inconclusive entries below differ from those in the screen. Calls follow the shape of the dose curve; as a rule, active = well fitted inhibition curve with a large enough effect; inconclusive = small, poorly fitted or top-dose-only effect; inactive = no such curve, though single readings can be large or run the other way. No potency is given beside an inconclusive call; the fits are too rough.

Molecular target: Glucagon-like peptide 1 receptor (Homo sapiens) (UniProt P43220)
Experiment: qHTS of GLP-1 Receptor Inverse Agonists (Inhibition Mode); also: nearly all actives have a fitted effect of over 55% in size
Conditions: HEK293 GLP-1R CRE-luciferase, luminescence, 24 h, GLP-1R form is constitutively active; activity change, negative = inhibition: at 38.3 µM (top of the series) unless noted
Procedure, shortened: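 Inverse agonists were sought by their lowering of basal cAMP reporter luciferase output in HEK293 cells stably carrying constitutively active human GLP-1R, after 24 h compound treatment.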
% is scaled to controls: 0 for no effect and ±100 for the full control effect; potency is read from the fitted curve at half-maximal effect; tags tell the direction and shape of the fitted curve.

Sequence of UniProt P43220 (P43220 whole entry, looked up): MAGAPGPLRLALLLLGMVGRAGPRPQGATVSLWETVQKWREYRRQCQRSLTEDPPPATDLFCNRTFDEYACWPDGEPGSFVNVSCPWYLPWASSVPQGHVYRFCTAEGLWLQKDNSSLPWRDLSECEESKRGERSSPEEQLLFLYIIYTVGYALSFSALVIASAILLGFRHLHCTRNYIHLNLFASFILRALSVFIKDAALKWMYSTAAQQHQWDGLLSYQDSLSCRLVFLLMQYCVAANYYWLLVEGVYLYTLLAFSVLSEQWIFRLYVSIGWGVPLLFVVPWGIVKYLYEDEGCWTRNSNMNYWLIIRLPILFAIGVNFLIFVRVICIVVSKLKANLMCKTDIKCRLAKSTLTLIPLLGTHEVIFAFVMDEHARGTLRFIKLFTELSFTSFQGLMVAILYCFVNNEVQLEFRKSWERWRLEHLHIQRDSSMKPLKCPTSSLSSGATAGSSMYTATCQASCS

Row | SMILES | activity change, negative = inhibition | Potency
1 | CCCNC(=O)Cn1nc(C)c2c(C)n(-c3ccccc3)nc2c1=O | inactive: -2.75% | 
2 | CC1=C(C(=O)Nc2cccnc2)C(c2ccc(F)cc2)n2nc(SCc3ccccc3)nc2N1 (centres undefined) | inactive: 0.952% | 
3 | O=C(C[n+]1cccc(NC(=O)c2ccccc2)c1)c1ccc(NC(=O)c2ccccc2)cc1 |  | inconclusive [inhibitor, single point]
4 | CC(N)c1csc(Nc2ccc(S(C)(=O)=O)cc2)n1 (centres undefined) | inactive: -5.92% | 
5 | COc1ccc(-n2cc(CN(C)C(C)c3ccncn3)c(-c3cccc(F)c3)n2)cc1 (centres undefined) |  | inconclusive [inhibitor, full curve, poor fit]
6 | COc1ccccc1CN(C)C(=O)C1(c2ccc(Cl)cc2)CC1 |  | inconclusive [inhibitor, single point]
7 | NC(=O)c1ccsc1NC(=O)CSc1n[nH]c(N)n1 | inactive: 6.18% | 
8 | O=C(CSc1oc(-c2ccco2)nc1S(=O)(=O)c1ccc(Br)cc1)c1ccc(Cl)cc1 |  | inconclusive [inhibitor, single point]
9 | NCc1oc(-c2ccccc2)cc1C(=O)O | inactive: -20.4% | 
10 | Cc1ccc(C2CC(c3cccs3)=NN2C(=O)c2ccco2)o1 (centres undefined) |  | inconclusive [inhibitor, single point]
11 | COc1cccc(-c2csc(N3CCN(C(=O)Nc4ccc(F)cc4)CC3)n2)c1 |  | inconclusive [inhibitor, partial curve, poor fit]
12 | COC(C(=O)Nc1ccc(Br)cc1F)c1ccccc1 (centres undefined) |  | inconclusive [inhibitor, single point]
13 | COc1ccc2c(c1)C(=O)/C(=C/C=C/c1ccccc1)CC2 |  | inconclusive [inhibitor, partial curve, poor fit]
14 | Cc1cc(Br)ccc1NC(=O)c1sc2ncn(Cc3ccccc3Cl)c(=O)c2c1C | inactive: 6.23% | 
15 | O=C(CCl)N=c1sccn1Cc1cccc2ccccc12 |  | inconclusive [inhibitor, single point]
16 | CCN(CC)S(=O)(=O)c1ccc(Oc2ccccc2OC)cc1 |  | inconclusive [inhibitor, single point]
17 | Cc1ccc(N(CC(=O)NCc2ccc(F)cc2)C(=O)CCC(=O)Nc2ccccn2)cc1C |  | inconclusive [inhibitor, single point]
18 | COc1ccc(CCNC(=O)c2ccc(Cl)cc2Cl)cc1 |  | inconclusive [inhibitor, partial curve, poor fit]
19 | Cc1ccc(Cc2c[nH]c(=S)s2)cc1 | inactive: -19.4% | 
20 | CCC1(c2ccccc2)NC(=O)N(CC(=O)Nc2ccc(S(=O)(=O)N3CC(C)CC(C)C3)cc2)C1=O (centres undefined) |  | inconclusive [inhibitor, partial curve, poor fit]
21 | O=C(NC(=S)Nc1ccc(S(=O)(=O)N2CCCCC2)cc1)c1cccs1 |  | inconclusive [inhibitor, partial curve, poor fit]
22 | Cc1onc(-c2ccccc2Cl)c1C(=O)NNC(=O)c1ccccc1F | inactive: -10.6% | 
23 | CCc1nn(CCCC(=O)NCc2ccc(OC)c(OC)c2)c(=O)c2cc3occc3n12 | inactive: 24.1% | 

Row | SMILES | activity change, negative = inhibition | Potency
24 | CCN(CCCNC(=O)c1ccc(Sc2ccc(Cl)cc2)c(NC(C)=O)c1)c1cccc(C)c1 | inactive: -2.9% | 
25 | Cc1ccc(NC(=O)c2ccc3c(=O)n4c(nc3c2)CCCCC4)cc1F |  | inconclusive [inhibitor, partial curve, poor fit]
26 | S=C(NCC1CCCO1)N1CCN(c2cccc(Cl)c2)CC1 (centres undefined) |  | inconclusive [inhibitor, single point]
27 | CCN(CC)c1ccc(-c2nc(-c3ccccn3)no2)cc1[N+](=O)[O-] |  | inconclusive [inhibitor, full curve, poor fit]
28 | O=C(CN1CCCC1c1cccs1)Nc1cccc(S(=O)(=O)N2CCCC2)c1 (centres undefined) |  | inconclusive [inhibitor, single point]
29 | CN1c2ccccc2-c2nc(SCC(=O)Nc3ccccc3)ncc2S1(=O)=O | inactive: 1.41% | 
30 | COc1ccc(CNC(=O)CN2CCC(C(=O)c3ccc(OC)cc3)CC2)cc1 |  | active: 10 µM
31 | CC1CCN(C(c2cccs2)c2nnnn2Cc2ccccc2)CC1 (centres undefined) |  | active: 10 µM
32 | CC(=O)c1ccc(OCc2ccc(C(=O)c3ccccc3)cc2)cc1 |  | inconclusive [inhibitor, single point]
33 | Cc1ccccc1-c1ccc2c(c1)O[C@H](CN(C)C(=O)C1CC1)[C@@H](C)CN([C@@H](C)CO)S2(=O)=O |  | inconclusive [inhibitor, single point]
34 | COc1ccc(Sc2ccc(NC(=O)c3ccccc3Cl)cc2C#N)cc1 |  | active: 12.6 µM
35 | CC(C)C(=O)N1CCC1(C)C(=O)Nc1ccc(-n2cccc2)cc1 (centres undefined) |  | inconclusive [inhibitor, single point]
36 | O=C(O)CC(NC(=O)Cc1ccccc1)c1ccccc1 (centres undefined) | inactive: 17.8% | 
37 | CCCCCCn1c(/C=C/c2ccccc2)nc2ccccc21 |  | inconclusive [inhibitor, single point]
38 | Cc1ccc(-n2cc(C(=O)OCc3ccc(Cl)cc3)c3ccccc3c2=O)cc1 | inactive: -11.1% | 
39 | Cc1c(NC(=S)N/N=C/c2ccc(N(C)C)cc2)c(=O)n(-c2ccccc2)n1C |  | inconclusive [inhibitor, single point]
40 | COc1ccccc1N1CCN(C(=O)c2cc3cc(Br)ccc3oc2=O)CC1 |  | inconclusive [inhibitor, partial curve, poor fit]
41 | CC1(Cc2cc(Cl)ccc2C(F)(F)F)C(=O)Nc2cc(F)ccc21 (centres undefined) |  | inconclusive [inhibitor, single point]
42 | Cc1ccc(NC(=O)Cc2coc3c(C)c(C)ccc23)c(C)c1 | inactive: -8.05% | 
43 | Cc1ccc(S(=O)(=O)N(Cc2ccc(F)cc2)Cc2ccco2)cc1 |  | inconclusive [inhibitor, single point]
44 | COc1ccc(C)cc1NCC(=O)Nc1ccc(C(C)(C)C)cc1 |  | inconclusive [inhibitor, single point]
45 | COc1ccc(Cl)cc1NC(=O)CN(C)C1CCCCC1 |  | inconclusive [inhibitor, partial curve, poor fit]
46 | CCN(Cc1ccccc1)C(=O)C1CCN(Cc2sccc2C)CC1 |  | inconclusive [inhibitor, single point]

Row | SMILES | activity change, negative = inhibition | Potency
47 | CCCCCc1n[nH]c2c1CCCC2 |  | inconclusive [inhibitor, full curve, poor fit]
48 | COc1ccc(CCNC(=S)Nc2cc(C)cc(C)c2)cc1 |  | inconclusive [inhibitor, partial curve, poor fit]
49 | Cc1ccc(S(=O)(=O)Nc2ccc3c(c2)nc(CCN2CCCC2)n3C)cc1 | inactive: 18.4% | 
50 | CSc1cccc(NC(=O)c2ccc3c(c2)CCCN3S(C)(=O)=O)c1 | inactive: -25.6% | 
51 | Cc1cc(NC(=O)c2ccc(OCC3CCCO3)cc2)ccc1Br (centres undefined) |  | inconclusive [inhibitor, partial curve, poor fit]
52 | O=C1NC(=S)N(C(=O)c2ccc(F)cc2)/C1=C/c1ccccc1 |  | inconclusive [inhibitor, single point]
53 | CCN(CC)c1cccc(OC2=NS(=O)(=O)c3ccccc32)c1 | inactive: 7.75% | 
54 | Cc1ccc(NC(=O)N2CCc3ccccc32)cc1C |  | inconclusive [inhibitor, partial curve, poor fit]
55 | COc1ccc(C(=O)c2ccc(N3CCN(C(=O)c4ccc(F)cc4)CC3)c(F)c2)cc1Br |  | inconclusive [inhibitor, full curve, poor fit]
56 | O=C(CNC(=O)OCc1ccccc1)NC1CCCCCC1 | inactive: 3.06% | 
57 | CCN1C(=O)c2ccccc2S(=O)(=O)c2ccc(C(=O)NCc3ccc(F)cc3)cc21 |  | inconclusive [inhibitor, single point]
58 | CC1CCCCC1NC(=O)/C=C/c1nc2ccccc2s1 (centres undefined) |  | inconclusive [inhibitor, partial curve]
59 | COc1ccccc1CNC(=O)CSC(=S)N1CCCC1 | inactive: 12.6% | 
60 | O=C(c1ccco1)N(CCC(c1ccccc1)c1ccco1)Cc1ccccc1 (centres undefined) |  | inconclusive [inhibitor, single point]
61 | Cc1csc2ncnc(N3CCN(C(=S)Nc4ccc(F)cc4F)CC3)c12 |  | inconclusive [inhibitor, partial curve, poor fit]
62 | CC(C)CC1(C)N=C(c2ccccc2)C(=S)N1 (centres undefined) |  | inconclusive [inhibitor, single point]
63 | CCn1ncc(CN2CCC(C(=O)Nc3cccc(-c4cccc(F)c4)c3)CC2)c1C | inactive: 4.61% | 
64 | N#Cc1ccccc1COc1ccc(/C=C/C(=O)O)cc1 |  | inconclusive [inhibitor, single point]
65 | Cn1cc(-c2cc3n(n2)CCC(=O)N3CCCC(=O)NCc2ccccc2)c2ccccc21 |  | inconclusive [inhibitor, partial curve, poor fit]
66 | COc1ccc(Nc2cc(C)c3cc([N+](=O)[O-])ccc3n2)cc1 |  | inconclusive [inhibitor, partial curve]
67 | COc1ccc(CNC(=O)CN(C)S(=O)(=O)c2ccc3[nH]c4c(c3c2)CCCC4)cc1 |  | inconclusive [inhibitor, single point]
68 | CCOc1cc(/C=N/NC(=O)N/N=C/c2ccc(O)c(OCC)c2)ccc1O |  | inconclusive [inhibitor, full curve, poor fit]
69 | CC1CC(=O)c2c(cc3c(-c4c(O)cc(O)c5c(O)c6c(cc45)OC(C)CC6=O)c(O)cc(O)c3c2O)O1 (centres undefined) |  | inconclusive [inhibitor, partial curve, poor fit]
